The assay concerns the target T1, Siglec-10Fc (human, UniProt Q96LC7 17-546).
T1 construct: Named only as Siglec-10Fc; not shown: Fc part of Siglec-10Fc
T1 sequence (looked up): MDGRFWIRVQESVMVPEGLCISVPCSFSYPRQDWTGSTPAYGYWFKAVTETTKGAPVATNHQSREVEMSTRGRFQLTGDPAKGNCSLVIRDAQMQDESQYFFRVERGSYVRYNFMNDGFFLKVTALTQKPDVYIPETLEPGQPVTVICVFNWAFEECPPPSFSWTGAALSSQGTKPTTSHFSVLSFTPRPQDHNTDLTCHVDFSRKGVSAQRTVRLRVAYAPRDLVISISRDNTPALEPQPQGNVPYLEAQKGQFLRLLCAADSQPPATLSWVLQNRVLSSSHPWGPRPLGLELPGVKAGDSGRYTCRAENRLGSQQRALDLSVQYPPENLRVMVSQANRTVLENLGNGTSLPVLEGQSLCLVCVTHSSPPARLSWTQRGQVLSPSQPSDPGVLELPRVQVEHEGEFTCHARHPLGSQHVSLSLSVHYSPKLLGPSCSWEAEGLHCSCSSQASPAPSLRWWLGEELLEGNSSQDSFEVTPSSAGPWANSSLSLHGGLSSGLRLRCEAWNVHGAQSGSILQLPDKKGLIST
The assay can be described thus: Biacore (SPR): CD24Fc immobilised on the chip, Siglec-10Fc injected at different concentrations; steady-state response against concentration with a fitted curve.

B1: CD24Fc fusion protein (mature human CD24 lacking the final polymorphic amino acid, fused to human IgG1 Fc), processed version (Fc fusion)
chain: SETTTGTSSNSSQSTSNSGLAPNPTNATT[here human IgG1 Fc without letters]
notes: The CD24 part is the truncated 30 residue mature form; also called CD24Ig; CD24IgG1
With B1, the equilibrium dissociation constant (Kd) was 162 nM.

Values taken from patent publication US20210046154A1 (ONCOIMMUNE, published 2021).
